From the supplement of paper PMC4604168 (melanoma cell lines)
The list shows a part of the results. Most values come without repeats; read them as rough.

Each molecule was assayed on SkMel28 (assay: cell count relative to DMSO control; melanoma cells; higher = more viable cells). Settings: library dose: low library concentration; 72 h.
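Further: cell number obtained by counting DAPI-stained nuclei in high-throughput microscope images with image analysis software, screen run in 1,536-well plates.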

Compound | cell count [%]
O=C(CCCCCCC(=O)Nc1ccccc1)NO [vorinostat] + CC(C)CCN1c2nc(Nc3cc(F)c(O)c(F)c3)ncc2N(C)C(=O)C1C [BID1870] (first compound 0.08 µM, partner dose 0.2 µM) | 71.9
C#Cc1cccc(Nc2ncnc3cc(OCCOC)c(OCCOC)cc23)c1 [erlotinib] + O=C(O)C(=O)Nc1sc2c(c1C(=O)O)CCNC2 [TCS401] (first compound 0.8 µM, partner dose 1.66667 µM) | 89.8
C#Cc1cccc(Nc2ncnc3cc(OCCOC)c(OCCOC)cc23)c1 [erlotinib] + COc1ccc2c(c1)CCC1C2CCC2(C)C(NCCCCCCN3C(=O)C=CC3=O)CCC12 [U73122] (first compound 0.8 µM, partner dose 0.4 µM) | 80.5
C#Cc1cccc(Nc2ncnc3cc(OCCOC)c(OCCOC)cc23)c1 [erlotinib] + Cc1cc([N+](=O)[O-])ccc1NS(=O)(=O)c1cc(Cl)ccc1Cl [FH535] (first compound 0.8 µM, partner dose 1 µM) | 88.2
COCC[n+]1c2c(n(Cc3cnccn3)c1C)C(=O)c1ccccc1C2=O + COc1cc2ncnc(Nc3ccc(Oc4ccccc4)cc3)c2cc1OC [SrcI1] (first compound 0.0004 µM, partner dose 2 µM) | 95.2
Nc1cccc2c1CN(C1CCC(=O)NC1=O)C2=O (stereo not given) [lenalidomide] + O=c1cc(-c2cccc3c2Sc2ccccc2S3)oc(N2CCOCC2)c1 [KU55933] (first compound 1 µM, partner dose 1 µM) | 87.1
Nc1cccc2c1CN(C1CCC(=O)NC1=O)C2=O (stereo not given) [lenalidomide] + COc1ccc(-c2ccc3c(N4CCOCC4)nc(N4C[C@@H](C)O[C@@H](C)C4)nc3n2)cc1CO [KU0063794] (first compound 1 µM, partner dose 0.02 µM) | 101
Nc1cccc2c1CN(C1CCC(=O)NC1=O)C2=O (stereo not given) [lenalidomide] + Cc1cc([N+](=O)[O-])ccc1NS(=O)(=O)c1cc(Cl)ccc1Cl [FH535] (first compound 1 µM, partner dose 1 µM) | 96.7
Nc1cccc2c1CN(C1CCC(=O)NC1=O)C2=O (stereo not given) [lenalidomide] + COc1cc2ncnc(Nc3ccc(Oc4ccccc4)cc3)c2cc1OC [SrcI1] (first compound 1 µM, partner dose 2 µM) | 93
Cn1c(Nc2ccc(C(F)(F)F)cc2)nc2cc(Oc3ccnc(-c4ncc(C(F)(F)F)[nH]4)c3)ccc21 + COc1ccc2c(c1)CCC1C2CCC2(C)C(NCCCCCCN3C(=O)C=CC3=O)CCC12 [U73122] (first compound 0.08 µM, partner dose 0.4 µM) | 63.7
Cn1c(Nc2ccc(C(F)(F)F)cc2)nc2cc(Oc3ccnc(-c4ncc(C(F)(F)F)[nH]4)c3)ccc21 + O=C(O)C(=O)Nc1sc2c(c1C(=O)O)CCNC2 [TCS401] (first compound 0.08 µM, partner dose 1.66667 µM) | 75.3
O=C(CCCCCCC(=O)Nc1ccccc1)NO [vorinostat] + Oc1cc(-c2nc(-c3ccccc3)[nH]c2-c2ccncc2)ccc1Cl [L779450] (first compound 0.08 µM, partner dose 0.2 µM) | 76.1
O=C(CCCCCCC(=O)Nc1ccccc1)NO [vorinostat] + O=C1NC(=O)/C(=C/c2ccc(-c3ccc(F)cc3O)o2)S1 [AS252424] (first compound 0.08 µM, partner dose 1 µM) | 81.8
COCC[n+]1c2c(n(Cc3cnccn3)c1C)C(=O)c1ccccc1C2=O + Oc1nc(-c2ccc(C(F)(F)F)cc2)nc2c1CSCC2 [XAV939] (first compound 0.0004 µM, partner dose 2 µM) | 81.8
C#Cc1cccc(Nc2ncnc3cc(OCCOC)c(OCCOC)cc23)c1 [erlotinib] + CCN(CC)CCCCNc1ncc2cc(-c3cc(OC)cc(OC)c3)c(NC(=O)NC(C)(C)C)nc2n1 [PD173074] (first compound 0.8 µM, partner dose 0.1 µM) | 97
COCC[n+]1c2c(n(Cc3cnccn3)c1C)C(=O)c1ccccc1C2=O + c1cc(-c2cnn3cc(-c4ccc(OCCN5CCCCC5)cc4)cnc23)ccn1 [Dorsomorphin] (first compound 0.0004 µM, partner dose 0.4 µM) | 81.1
O=C(CCCCCCC(=O)Nc1ccccc1)NO [vorinostat] + O=C(Nc1ccccc1)c1cc([N+](=O)[O-])ccc1Cl [GW9662] (first compound 0.08 µM, partner dose 2 µM) | 73.9
Nc1cccc2c1CN(C1CCC(=O)NC1=O)C2=O (stereo not given) [lenalidomide] + O=C(O)C(=O)Nc1sc2c(c1C(=O)O)CCNC2 [TCS401] (first compound 1 µM, partner dose 1.66667 µM) | 97.3
COCC[n+]1c2c(n(Cc3cnccn3)c1C)C(=O)c1ccccc1C2=O + O=c1cc(-c2cccc3c2Sc2ccccc2S3)oc(N2CCOCC2)c1 [KU55933] (first compound 0.0004 µM, partner dose 1 µM) | 70.6
Nc1cccc2c1CN(C1CCC(=O)NC1=O)C2=O (stereo not given) [lenalidomide] + N#Cc1c(O)c2c(-c3ccc(-c4ccccc4O)cc3)csc2[nH]c1=O [A769662] (first compound 1 µM, partner dose 2 µM) | 82.8
COCC[n+]1c2c(n(Cc3cnccn3)c1C)C(=O)c1ccccc1C2=O + CCCCCCCCCCCC1=C(O)C(=O)C=C(O)C1=O [Embelin] (first compound 0.0004 µM, partner dose 1.2 µM) | 112
Cn1c(Nc2ccc(C(F)(F)F)cc2)nc2cc(Oc3ccnc(-c4ncc(C(F)(F)F)[nH]4)c3)ccc21 + Cc1cc([N+](=O)[O-])ccc1NS(=O)(=O)c1cc(Cl)ccc1Cl [FH535] (first compound 0.08 µM, partner dose 1 µM) | 68
COCC[n+]1c2c(n(Cc3cnccn3)c1C)C(=O)c1ccccc1C2=O + COc1ccc2c(c1)CCC1C2CCC2(C)C(NCCCCCCN3C(=O)C=CC3=O)CCC12 [U73122] (first compound 0.0004 µM, partner dose 0.4 µM) | 98.3
Nc1cccc2c1CN(C1CCC(=O)NC1=O)C2=O (stereo not given) [lenalidomide] + CCCCCCCCCCCC1=C(O)C(=O)C=C(O)C1=O [Embelin] (first compound 1 µM, partner dose 1.2 µM) | 109
O=C(CCCCCCC(=O)Nc1ccccc1)NO [vorinostat] + c1cc(-c2cnn3cc(-c4ccc(OCCN5CCCCC5)cc4)cnc23)ccn1 [Dorsomorphin] (first compound 0.08 µM, partner dose 0.4 µM) | 91
